Consider 82 compounds from PubChem BioAssay (NCI).

Where “and” joins values, the source holds several entries; their conditions need not be identical. Equal entries are not always repeated.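 Five concentrations, 48 hours, 96-well plates. Abbreviation: GI50, concentration required for 50% inhibition of growth. TGI marks complete inhibition of growth.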

This assay deals with NCI-H322M lung. Put plainly: inhibition of tumour cell growth, NCI panel, 48 h.
Compound `COc1ccc(C(=O)c2ccc(-n3cc(/C=C/[N+](=O)[O-])c4ccccc43)cc2)cc1` gave a TGI greater than 100 µM.

In the case of `CC(C)CCCC(C)[C@H]1CC[C@H]2N=C(Nc3ccccc3)CCC[C@]12C` (some centres not stated), the TGI was 34.6 µM.

`O=C1C=C(N2CCN(c3ccccn3)CC2)C(=O)c2c(O)ccc(O)c21` had a TGI of 42.7 µM.

For `CCOC(=O)C[C@@]12CCCNC1(C)CCc1ccccc12` (some centres not stated), the TGI was greater than 100 µM.

Consider `CCCn1cnc2c(SCc3ccccc3)nc(N)nc21`, for which the GI50 is greater than 100 µM and the TGI was greater than 100 µM.

The compound `O=C(/C=C/c1ccco1)c1cccc(C(=O)/C=C/c2ccco2)n1` yielded a TGI greater than 100 µM.

Consider `C=C1CC(Cn2cc(Br)c(=O)[nH]c2=O)(c2ccc(-c3ccccc3)cc2)OC1=O` (configuration not stated), for which the TGI came to 20.3 µM.

With `C1=C2CNCC3=Cc4ccc5ccccc5c4OC23Oc2c1ccc1ccccc21`, the GI50 is 10.8 µM and the TGI came out at 32.9 µM.

Regarding `OC(c1cc(-c2ccccc2)nc2c1ccc1ccccc12)C1CCCCN1` (configuration not stated), the TGI came out at 2.94 µM.

`CC(C)(C)c1c(C(C)(C)C)c(=O)c1=O` registered a TGI greater than 100 µM.

As for `NS(=O)(=O)c1cc(S(N)(=O)=O)c(NC(=O)N(c2ccccc2)c2ccccc2)c(Cl)c1Cl`, the TGI amounted to 96.9 µM.

As to `Cc1ccc(/C=C2\CN(C)CC3C2=NC(=S)NC3c2ccc(C)cc2)cc1` (configuration not stated), the TGI is greater than 100 µM.

Turning to `CN(C)CCCN1c2ccccc2Sc2ccc(Cl)cc21`, the GI50 is 6.3 µM and 3.22 µM; the TGI is 19.5 µM and 13.3 µM.

Take `Cn1cnc([N+](=O)[O-])c1Sc1nc(N)nc2nc[nH]c12`: the GI50 is 13.5 µM and the TGI was greater than 100 µM.

Consider `Cc1cc(NC(=O)NC(=O)c2ccccc2N(C)C)ccc1Oc1ncc(Br)cn1`, for which the GI50 was 1.48 µM and the TGI was greater than 63.1 µM.

`COC(=O)C(NC(=O)CSc1nnc(COc2ccc(Cl)cc2)n1-c1ccccc1)C(C)C` (configuration not stated) displayed a TGI of 60.6 µM.

Consider `CC(=O)O[C@H]1C(=O)N(c2cc3c4ccccc4ccc3c3ccccc23)[C@@H]1c1ccccc1`, for which the TGI amounted to 57.1 µM.

As for `Cc1ccc2c(c1)CC1(C2=O)[C@H](c2ccccc2)C2C(=O)c3ccc(C)cc3C2[C@H]1c1ccccc1` (some centres not stated), the TGI is greater than 100 µM.

In turn, `c1ccc(NC[Si]23OCCN(CCO2)CCO3)cc1` yielded a TGI greater than 100 µM.

As for `COc1ccc(C(=O)C[C@]2(O)C(=O)Nc3c(Cl)ccc(Cl)c32)cc1`, the GI50 was 2.11 µM and the TGI was greater than 100 µM.

As for `NC(=S)N/N=C\CC(O)(C(F)(F)F)C(F)(F)F`, the TGI was greater than 10 µM.

Compound `O=C1C(c2ccccc2)=C(c2ccccc2)[C@H](c2ccccc2)[C@]1(Cc1nnn(-c2ccc([N+](=O)[O-])cc2)c1N1CCOCC1)c1ccccc1` returned a TGI greater than 37.5 µM.

Regarding `O=[N+]([O-])/C=C/c1cn(CCCCCn2cc(/C=C/[N+](=O)[O-])c3ccccc32)c2ccccc12`, the TGI was found to be 89.2 µM.

Regarding `CC(C)(CO)N=Cc1ccccc1[O-].CC(C)(CO)N=Cc1ccccc1[O-].[Co+2]`, the GI50 is greater than 85.5 µM and the TGI is greater than 100 µM.

For the compound `O=C(Nc1ccccc1O)c1ccc(CNC(=O)c2ccsc2Nc2ccnc(C(F)(F)F)c2)cc1`, the GI50 is 3 µM and the TGI turned out to be 39.8 µM.

As to `CC(C)=CCC[C@@H](C)c1c2[nH]c3ccccc3sc-2c(C)c(=O)c1=O`, the TGI was greater than 75 µM.

As for `O=C(O)C1C2C=CC(O2)C1C(=O)Nc1ncccn1` (configuration not stated), the TGI was greater than 100 µM.

`CC(=O)[CH-]C(=O)c1ccccc1.CC(=O)[CH-]C(=O)c1ccccc1.[CH2-]CCC.[CH2-]CCC.[Sn+4]`: the GI50 is 1.55 µM and the TGI came to 2.89 µM.

`Cc1ccc(S(=O)(=O)N/N=C2\C3CC4CC(C3)C2C4)cc1` (configuration not stated): the TGI was greater than 100 µM.

Consider `c1ccc(OCCSCCCCCCCCCCSCCOc2ccccc2)cc1`, for which the TGI was greater than 100 µM.

`CC1(C)CC(=O)c2c(oc3cc(O)c(O)cc23)C1` gave a TGI greater than 100 µM.

For the compound `O=c1[nH]c2cc(Cl)c(Cl)cc2n2cc3ccccc3c12`, the GI50 was 13.6 µM and the TGI worked out at 27.2 µM.

On to `CC(C)(C)c1ccc(-c2nnc(-c3cc(C#N)cc(-c4nnc(-c5ccc(C(C)(C)C)cc5)o4)c3)o2)cc1`, for which the TGI is greater than 100 µM.

In turn, `CC(=O)OCCC(O[Si](c1ccccc1)(c1ccccc1)C(C)(C)C)C(C)(C)O` (configuration not stated) showed a TGI greater than 100 µM.

For `COc1cc(O)c(C(C)=O)c(O)c1`, the TGI was greater than 100 µM.

`C=CCOC(=O)CCCCCCCCCCCCCCCOC(=O)C1=C(CCC[C@@H](C)O[Si](C)(C)C(C)(C)C)NC(=O)N2[C@H](CC3(CC/C=C\[C@H](CC)O[Si](C(C)C)(C(C)C)C(C)C)OCCO3)CC[C@H]12` gave a TGI greater than 100 µM.

As for `CCCCCCOc1ccc(C(=N)N(CCCC)CCCC)c2ccccc12`, the GI50 was 1.4 µM and the TGI is 2.77 µM.

`CCOCNc1ccc(N2C(=O)/C(=C/c3ccc(N(CC)CC)cc3)N=C2c2ccccc2)cc1`: the GI50 is greater than 100 µM and the TGI is greater than 100 µM.

With `COc1ccc(-c2cc(/C=C/C(=O)c3cc(OC)c(OC)c(OC)c3)[nH]n2)cc1OC`, the GI50 was 2.02 µM and the TGI was 6.04 µM.

In turn, `CC12CC(c3ccccc3O1)C(C(=O)Nc1cccc(F)c1)C(=O)N2` (configuration not stated) gave a TGI greater than 100 µM.

As for `COc1ccc2c(c1)nc1n2C(c2ccc(F)cc2)SC1` (configuration not stated), the GI50 was 23.3 µM and the TGI was greater than 100 µM.

Take `COC(=O)[C@H](Cc1ccccc1)NC(=O)c1csc([C@@H](C[C@H](C(C)C)N(C)C(=O)[C@@H](NC(=O)[C@H]2CCCN2C)C2CC2)OC(C)=O)n1`: the GI50 is 2.18 µM and the TGI was greater than 33.3 µM.

With `O=c1oc2ccc(F)cc2c(=O)n1-c1ccc(Br)cc1F`, the GI50 is 0.434 µM and the TGI worked out at 24.5 µM.

For the compound `N#CCCC1(CCC#N)CCCCCCC(CCC#N)(CCC#N)C(O)C1O` (configuration not stated), the TGI is greater than 100 µM.

`NC(=O)C1=CC2C3C=CC2(O)C(=O)OC3O1` (configuration not stated) gave a TGI of 44 µM.

Take `COC(=O)c1ccc(/C=C2\CCc3ccccc3C2=O)cc1`: the TGI is greater than 100 µM.

Compound `CC(=O)c1ccc(NC(=O)CSc2nc(C)nc3c2sc(=S)n3-c2ccccc2)cc1` registered a TGI greater than 10 µM.

For the compound `O=S(=O)(O)C1CCC(O)C2[N-]CCCC21.O=S(=O)(O)C1CCC(O)C2[N-]CCCC21.[Zn+2]` (configuration not stated), the TGI is greater than 100 µM.

For `CC(=O)Nc1ccc(C(=O)N2N=C(C)/C(=C/c3ccc(O)cc3)C2=O)cc1`, the TGI is greater than 100 µM.

On to `COC(=O)c1cc2c3c(ccc2[nH]1)N(C(=O)c1cc2c4c(ccc2[nH]1)N(C(=O)c1cc2c5c(ccc2[nH]1)N(C(N)=O)CC5)CC4)CC3`, for which the TGI was greater than 100 µM.

`NC(=O)c1c[se]c(C2OC(COP(=O)(O)CP(=O)(O)OCC3OC(n4cnc5c(N)ncnc54)C(O)C3O)C(O)C2O)n1` (configuration not stated) displayed a TGI greater than 100 µM.

On to `CO[P@]1(=O)O[C@@H](c2ccccc2)[C@H](O)[C@@]1(O)c1ccccc1`, for which the TGI is greater than 100 µM.

Turning to `CCOC1=C2NC(Cc3ccc(F)cc3)=NC2C(=O)c2ccccc21` (configuration not stated), the TGI was greater than 100 µM.

As for `CN(C)CCCC1(c2ccc(F)cc2)OCc2cc(-c3cncc4ccccc34)ccc21` (configuration not stated), the GI50 is 3.65 µM and the TGI was 14.1 µM.

`CCCCCCOP(=O)(OCCCCCC)OC(C(=O)OC)C(F)(F)F` (configuration not stated) yielded a TGI greater than 100 µM.

As for `Fc1cc(-c2nnc3n2N=C(c2ccc(Cl)cc2Cl)CS3)c(Cl)cc1Cl`, the GI50 was 76.4 µM and the TGI is greater than 100 µM.

Turning to `COc1ccc(CC2=NCCc3cc(OC)c(OC)cc32)cc1Br`, the TGI is greater than 100 µM.

`CCCCCCCCCC(=O)Oc1cccc2onc(C)c12` displayed a TGI greater than 100 µM.

`Cc1cc(S(=O)(=O)O)c(NC(=O)c2oc3cc(O)ccc3c(=O)c2C)cc1Cl` registered a TGI greater than 100 µM.

Regarding `Cc1c2cccc-2ccc2c1[nH]c1ccccc12`, the TGI stood at 16.5 µM.

`CCCNC(=O)CCC(C)[C@H]1CCC2C3C(C[C@H](OC(C)=O)[C@@]21C)[C@@]1(C)CCC2(C[C@H]1C[C@H]3OC(C)=O)OOC1(CCCCC1)OO2` (some centres not stated) registered a TGI greater than 100 µM.

With `CC12OC(C(=O)C13CCC3)C1C(=O)c3ccccc3C(=O)C12` (configuration not stated), the GI50 is greater than 100 µM and the TGI was greater than 100 µM.

Compound `Cc1cn([C@H]2[C@@H](CO)C[C@H]2O)c(=O)[nH]c1=O` came in with a TGI greater than 100 µM.

In the case of `COc1ccc(/C=C/C(=O)C(C)(C)Br)cc1`, the TGI turned out to be 61 µM.

`O=C1/C(=C\c2cccc(Oc3ccccc3)c2)SC(c2ccccc2)N1c1cccc([N+](=O)[O-])c1` (configuration not stated) yielded a TGI greater than 100 µM.

For `Fc1c[c-]c(-c2ccccn2)c(F)c1.[CH3-].[Pt+2].c1ccc(P(C[PH+](c2ccccc2)c2ccccc2)c2ccccc2)cc1`, the GI50 is 1.22 µM and the TGI came out at 4.4 µM.

Compound `CCOc1ccc(-c2oc(/C=N/NS(=O)(=O)c3ccc(C)cc3)c([N+](=O)[O-])c2-c2ccc(OCC)cc2)cc1` yielded a TGI greater than 70.3 µM.

As for `C/C(=N\n1c(N)c(C#N)c(-c2ccc(Cl)cc2)c(C#N)c1=O)c1ccncc1`, the GI50 is 4.73 µM and the TGI is greater than 100 µM.

`CC1=C(C(=O)CC(=O)C(=O)NC2C3CC4CC(C3)CC2C4)Sc2ccccc2N1` (configuration not stated): the TGI is greater than 100 µM.

`CC1(C)CCC2(C(=O)OC3OC(CO)C(O)C(O)C3O)CCC3(CO)C(=CCC4C5(C)CC(O)C(O)C(C)(C(=O)OC6OC(CO)C(O)C(O)C6O)C5CCC43C)C2C1` (configuration not stated) yielded a TGI greater than 100 µM.

In the case of `COc1cc2nnn3c4ncccc4c(N=O)c3c2cc1OC`, the GI50 was 20.7 µM and the TGI came out at 67.8 µM.

Compound `CC[P+]1(CC)CCCC1` gave a TGI greater than 100 µM.

Regarding `CCC(=O)c1cc([N+](=O)[O-])c(Br)s1`, the GI50 was 16.6 µM and the TGI was found to be 30.8 µM.

Compound `COC(=O)n1c(C[P+](c2ccccc2)(c2ccccc2)c2ccccc2)cc2ccccc21` gave a TGI of 25.9 µM.

On to `C[N+](C)=c1nc(N2CCOCC2)ss1`, for which the TGI was greater than 100 µM.

Regarding `CC(=O)CC1(C)OC(N)=C(C#N)C1(C#N)C#N` (configuration not stated), the TGI is greater than 100 µM.

The compound `OC12CCCCCC1(N1CCOCC1)c1ccccc12` (configuration not stated) showed a TGI greater than 100 µM.

Compound `C[C@@]12CCCC(=O)N1[C@@H](CO)C(c1ccccc1)O2` (some centres not stated) showed a TGI greater than 100 µM.

Compound `CC(C)C1CC(CO)(CNc2cc(Cl)nc(N)n2)C1` (configuration not stated) came in with a TGI greater than 100 µM.

For the compound `COc1ccc2[nH]c(-c3ccccc3)cc2c1`, the GI50 is greater than 100 µM and the TGI was greater than 100 µM.

Take `Cn1cc(CO)c2ccccc21`: the GI50 was 90.8 µM and the TGI is greater than 100 µM.

The compound `COc1ccc(-c2c3ccccc3c(-c3ccc(OCCCCCBr)cc3)c3ccccc23)cc1` came in with a TGI greater than 100 µM.
